Laboratory results as given in PubChem BioAssay AID1745853 (National Center for Advancing Translational Sciences (NCATS), 2022).
Several values for one entry are separate records, joined by “and”; a condition that tells them apart may be missing. Equal values may be shown once. The list shows a part of the results. Further columns of the screen follow, without active or inactive calls.

How the values were obtained:
Test in all cases: Primary Screen for Target Class Profiling of Small Molecule Inhibitors of Methyltransferases
[1] = molecular target: Glycine N-methyltransferase (Homo sapiens) (UniProt Q14749); conditions: purified enzyme, MTase-Glo SAH luminescence; measured here: GNMT inhibition; at 40 µM; stronger effect = lower value
In short: (§1)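 Each enzyme was reacted with SAM and its substrate, with compounds tested once at 40 uM; SAH formed was read by MTase-Glo luminescence.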

[2] = molecular target: Guanidinoacetate N-methyltransferase (Homo sapiens) (UniProt Q14353); conditions: purified enzyme, MTase-Glo SAH luminescence; measured here: GAMT inhibition; at 40 µM; stronger effect = lower value
In short: as §1

[3] = molecular target: Histamine N-methyltransferase (Homo sapiens) (UniProt P50135); conditions: purified enzyme, MTase-Glo SAH luminescence; measured here: HNMT inhibition; at 40 µM; stronger effect = lower value
In short: as §1

[4] = molecular target: Nicotinamide N-methyltransferase (Homo sapiens) (UniProt P40261); conditions: purified enzyme, MTase-Glo SAH luminescence; measured here: NNMT inhibition; at 40 µM; stronger effect = lower value
In short: as §1

[5] = molecular target: Phenylethanolamine N-methyltransferase (Homo sapiens) (UniProt P11086); conditions: purified enzyme, MTase-Glo SAH luminescence; measured here: PNMT inhibition; at 40 µM; stronger effect = lower value
In short: as §1
% is set by controls: 0 for no effect and ±100 for the full control effect.

Structure (SMILES) | activity change, negative = inhibition [1] | activity change, negative = inhibition [2] | activity change, negative = inhibition [3] | activity change, negative = inhibition [4] | activity change, negative = inhibition [5]
CC1(C(=O)NCc2ccccc2)Cn2nc(-c3ccccc3)cc2C(=O)N1CCC1=CCCCC1 (stereo unspecified) | 4.05% | 2.92% | 5.52% | 1.53% | -0.757%
CCc1cncnc1N1CCN(Cc2nc3ccc(C(F)(F)F)cc3[nH]2)CC1 | -13.5% and -4.21% | 1.74% and -3.46% | -4.42% and 1.94% | -27.7% and -48.3% | -25.7% and -36.3%
Cc1cc2[nH]c(=O)[nH]c2cc1S(=O)(=O)N1CCN(c2cccc(C)c2C)CC1 | 8.69% | 1.39% | 6.58% | -5.85% | 4.57%
CCOC(=O)C1CCN(S(=O)(=O)c2cc3[nH]c(=O)[nH]c3cc2C)CC1 | -4.31% | 3.11% | 1.62% | -3.82% | -7.72%
Oc1ccc(/C=C/c2ccc(/C=C/c3ccc(O)cc3)c(Br)c2)cc1 | -18.6% | 1.57% | -9.54% | -11.4% | 0.253%
CCc1cc2c(=O)c(-c3nc4ccccc4s3)coc2c(CN2CCCCC2)c1O | -6.77% | -7.93% | -0.842% | -19.1% | -3.93%
COc1ccccc1NC(=O)N1C[C@@H]2C[C@H](C1)c1c(/C=C/c3ccc(Cl)cc3)ccc(=O)n1C2 | -4.59% | -9.7% | -2.57% | -11.8% | -6.99%
CC1(C(=O)NC2CCCCCCC2)Cn2c(cc3occc32)C(=O)N1CCCN1CCCC1 (stereo unspecified) | 2.69% | 3.73% | 2.63% | -0.055% | 0.413%
COc1cccc(N2C(=O)NC(=NC3CCCCC3)C23CCCN(Cc2ccsc2)C3)c1 (stereo unspecified) | -12% | -1.6% | -11.2% | -31.7% | -7.17%
CC(C)CCNC(=O)C1(C)Cn2c(cc3ccccc32)C(=O)N1CCc1cccs1 (stereo unspecified) | 6.67% | 0% | 5.03% | 4.15% | 0.475%
CC12CC34CC(O)C5C(CO)(CO)CC(=O)CC5(C)C3CC1C2C4 (stereo unspecified) | -0.374% | 5.65% | 7.92% | -15.4% | 1.55%
COC(=O)CC1CCN(C(=O)C2CC(=O)N(c3n[nH]c4cccc(F)c34)C2)CC1 (stereo unspecified) | -2.74% | 0.163% | 1.26% | 0.623% | 1.69%
Cn1c(=O)c2ccc(C(=O)NC3CCCCC3)cc2n2c(=O)n(Cc3ccccc3Cl)nc12 | 2.88% | 0% | 9.36% | 7.25% | 5.77%
CCCC1CCC(c2ccc(C(=O)COC(=O)C(Cc3c[nH]c4ccccc34)NC(=O)c3ccc(Cl)cc3)cc2)CC1 (stereo unspecified) | -0.525% | 2.66% | -10.2% | -17.5% | -6.36%
C=CCn1cc(CN2CCC(Oc3ccc4ccccc4c3)(C(=O)O)CC2)cn1 | -4.58% | 2.61% | 2% | 2.46% | 2.82%
Cn1c(=O)n(C)c2cc(S(=O)(=O)NCc3ccc(F)cc3)ccc21 | 9.96% | 0% | 7.66% | -2.7% | 0.345%
Cc1ccc(-c2cccc(CN3C4CCC3CN(C(C)C)C4)c2)c(C)c1 | -2.67% | -0.647% | -13.4% | -6.07% | -3.13%
CC(C)Oc1ccc(CN2C(=O)c3cc4sccc4n3CC2(C)C(=O)NC2CCCCC2)cc1 (stereo unspecified) | -2.37% | 0% | 1.92% | 0.02% | 0.829%
COc1cc(Cl)c(NS(=O)(=O)c2ccc3c(c2)NC(=O)CC(=O)N3)c(OC)c1 | -10.4% | 3.13% | -4.59% | -8.85% | -9.97%
Cc1nc2ccc(C(=O)NCc3cc4n(n3)CCN(C(=O)N(C)C)C4)cc2o1 | -2.6% | -0.184% | 0.1% | 1.02% | -10%

Structure (SMILES) | activity change, negative = inhibition [1] | activity change, negative = inhibition [2] | activity change, negative = inhibition [3] | activity change, negative = inhibition [4] | activity change, negative = inhibition [5]
CCOC(=O)C1(Cc2ccccc2)CCNCC1 | -0.04% | -1.38% | -1.08% | -4.88% | -3.39%
O=C(NCc1ccccn1)C1CCN(c2cc(C3CC(O)C3)ncn2)CC1 (stereo unspecified) | -2.71% | -0.799% | 1.03% | 1.91% | 4.6%
Cc1cc(F)ccc1NC(=O)CCC1CCCN(Cc2cn[nH]c2-c2cccc(F)c2)C1 (stereo unspecified) | -4.98% | -5.92% | -9.75% | -10.1% | -18.6%
O=C(Cn1c(=O)n2nc(-c3ccc(F)cc3)nc2c2ccccc21)N1CCN(c2ccccc2F)CC1 | 5.99% | 0% | -1.29% | 0.962% | 2.05%
CCCC1c2cccn2CCN1C(=O)Nc1cc(C)cc(C)c1 (stereo unspecified) | -0.3% | 2.51% | -11.8% | 2.35% | 8.35%
CN[C@H]1CN(c2ccc3c(=O)c(C(=O)O)cn(-c4nccs4)c3n2)C[C@@H]1OC | – | -8.75% | – | -16.2% | -5.76%
CN(C)CCN1C(=O)c2cc3occc3n2CC1(C)C(=O)NC1CCCCCCC1 (stereo unspecified) | 0.645% | 4.66% | -2.09% | 3.56% | -2.47%
Cc1noc(C)c1S(=O)(=O)N1CCC2(CC1)CC(OCC1CC1)CCO2 (stereo unspecified) | -8.24% | -7.3% | -4.5% | -7.96% | -4.31%
CC(C)CCn1c(=O)c2ccccc2n2c(=O)n(CC(=O)NCc3ccc(Cl)cc3)nc12 | 5.8% | 2.79% | 10.7% | 6.01% | 7.39%
CC1CCCCC1NC(=O)C1(C)Cn2c(ccc2-c2ccco2)C(=O)N1Cc1ccc(Cl)cc1 (stereo unspecified) | 1.28% | 0% | 2.35% | 3.71% | -0.707%
CC1CCCCC1NC(=O)C1(C)Cn2c(cc3sccc32)C(=O)N1Cc1cccnc1 (stereo unspecified) | 2.48% | 0.478% | 3.65% | 0.647% | -0.194%
Cc1ccc2nc(-c3ccc(Cl)c(NC(=O)c4ccc5c(c4)OCCO5)c3)oc2c1 | – | -2.88% | – | -15.1% | -3.2%
COc1ccc(-c2cnc3c(-c4cccc5ncccc45)cnn3c2)cc1 | 3.02% | 6.22% | 5.19% | -7.97% | 0.089%
CCCN1C(=O)c2nc3ccccc3n2CC1(C)C(=O)NC1CCCCC1 (stereo unspecified) | 6.5% | 6.05% | 8.95% | 8.52% | 2.41%
CCc1ccc(N2C(=O)c3ccccc3CC2(C)C(=O)NCc2ccccc2)cc1 (stereo unspecified) | -1.64% | 2.06% | -6.89% | -10.2% | -9%
N[C@@]1(C(=O)O)CC[C@H]2[C@H](C(=O)O)[C@H]21 | 0.913% | 9.22% | 3.24% | -11.1% | -4.78%
Cc1cc2c(cc3n2CC(C)(C(=O)NC2CCCCCC2)N(CCCN2CCOCC2)C3=O)o1 (stereo unspecified) | 1.81% | 0.266% | 3.92% | 1.51% | -0.582%
COc1ccccc1CNC(=O)C1(C)Cn2cnc(C(=O)NCc3ccc(F)cc3)c2C(=O)N1C1CC1 (stereo unspecified) | 3.48% | 0% | 11.7% | 1.97% | 9.18%
CCn1c(=O)c2ccnn2c2ccc(C(=O)NCc3ccc(N4CCOCC4)cc3)cc21 | -14.8% | -9.65% | -8.02% | -29.2% | -14.6%
CN[C@H](CC(C)C)C(=O)N[C@H]1C(=O)N[C@@H](CC(N)=O)C(=O)N[C@H]2C(=O)N[C@H]3C(=O)N[C@H](C(=O)N[C@H](C(=O)O)c4cc(O)cc(O)c4-c4cc3ccc4O)[C@H](O)c3ccc(c(Cl)c3)Oc3cc2cc(c3O[C@@H]2O[C@H](CO)[C@@H](O)[C@H](O)[C@H]2O[C@H]2C[C@](C)(N)[C@H](O)[C@H](C)O2)Oc2ccc(cc2Cl)[C@H]1O | -3.84% | 4.06% | 1.39% | -4.56% | 6.83%

Structure (SMILES) | activity change, negative = inhibition [1] | activity change, negative = inhibition [2] | activity change, negative = inhibition [3] | activity change, negative = inhibition [4] | activity change, negative = inhibition [5]
NC(=O)C1CCN(C(=O)CCCc2nnc3n4nc(-c5ccccc5)nc4c4ccccc4n23)CC1 | -1.7% | 0% | 7.88% | 11.5% | 4.22%
C=Cc1ccc(CSc2nnc3n(CCC)c(=O)c4cc(Cl)ccc4n23)cc1 | -24.9% | -0.244% | -1.76% | -16% | -4.67%
COCCCN1C(=O)c2nc3ccccc3n2CC1(C)C(=O)NC1CCCCC1C (stereo unspecified) | 6.9% | 0% | 9.75% | 15.5% | 3.17%
COc1c(C)cnc(Cn2cc(C#CCC(C)(C)O)c3c(Cl)nc(N)nc32)c1C | -25.3% | -7.86% | 3.34% | -21.5% | -3.6%
COc1cc2ncnc(Oc3cccc(NC(=O)Nc4cc(C(C)(C)C(F)(F)F)on4)c3)c2cc1OC | 4.49% | 19.3% | 12.2% | -24% | 9.11%
O=C(COc1ccc(Cl)cc1)NC1CCC(NC(=O)COc2ccc(Cl)cc2)CC1 (stereo unspecified) | 0.511% | -6.32% | -5.33% | -16.9% | -3.87%
CCc1ccc(CNC(=O)CCn2ccc3cc(S(=O)(=O)N4CCCCC4)ccc32)cc1 | 6.69% | 2.5% | 5.14% | 3.24% | 3.38%
COc1ccc(-c2n[nH]c3c2CC(=O)N(c2ccccc2)C3)cn1 | -10.7% | -14.3% | -6.45% | -21.2% | -14.6%
CC1(C(=O)NC2CCCCCC2)Cn2nc(-c3ccco3)cc2C(=O)N1Cc1cccc(Cl)c1 (stereo unspecified) | -2.15% | 0% | 1.23% | -2.14% | -2.5%
CC12CC(c3ccoc3)OC(=O)C1CCC1(C)C2CCC(O)C1(C)O (stereo unspecified) | 0% | -3.39% | -5.06% | -15.7% | -2.31%
COc1ccccc1CNC(=O)C1(C)Cn2c(cc3ccccc32)C(=O)N1CCc1ccc(SC)cc1 (stereo unspecified) | 2.15% | 0% | 5.18% | 6.63% | -2.19%
COc1ccc(Cc2ccc(NC(N)=O)cc2)cc1-c1cccc(Cl)c1 | 2.29% | 8.15% | 1.87% | 2.67% | 9.11%
C[S+](=O)([O-])N1Cc2ccccc2CC2(CCCN(Cc3ccccn3)C2)C1 (stereo unspecified) | -5.14% | -3.84% | -2.6% | -8.45% | -2.15%
C[C@H]1[C@@H]2[C@@H](O)C([C@H](C)C(=O)NC3CCCCC3)CC[C@@]2(C)CC[C@@H]1NC(=O)C1CCCCC1 (stereo partly specified) | -2.47% | -12.4% | -2.9% | -15% | -27%
COc1cccc(Nc2nc3c(S(=O)(=O)c4ccc(C)cc4)nnn3c3ccccc23)c1 | 2.59% | 1.14% | 8.49% | 8.35% | 1.54%
CCC1CCCCN1CCCN1C(=O)c2cc3sccc3n2CC1(C)C(=O)NC1CCCCCC1 (stereo unspecified) | 4.42% | 1.19% | -9.12% | -5.87% | 3.59%
Cc1nc(C)c(C(=O)N2CCCC(COc3ccccc3C(=O)N3CCCC3)C2)s1 (stereo unspecified) | -0.649% | 2.33% | 1.16% | -6.26% | -11.7%
CN(C)S(=O)(=O)N1CCc2nn(C)c(=O)n2CC1 | -6.82% | -8.14% | -3.9% | -8.61% | 1.41%
COc1ccc(CN(C)C2CCCN(CCc3ccccc3)C2)c(OC)c1OC (stereo unspecified) | -0.927% | -7.85% | -3.11% | -5.81% | -2.02%
